Laboratory results: PubChem BioAssay AID652104 (National Center for Advancing Translational Sciences (NCATS), 2013)
In all, about 410,000 compounds went through this assay and about 7,200 (1.8%) were called active. Inconclusive means that the source gave no clear call. Such entries were picked first, then a sample of the others. Calls follow the shape of the dose curve; as a rule, active = well fitted activation curve with a large enough effect; inconclusive = small, poorly fitted or top-dose-only effect, or another doubt; inactive = no such curve, though single readings can be large or run the other way. Potencies of inconclusive entries are left out as doubtful fits.

Experiment: qHTS of TDP-43 Inhibitors; also: nearly all actives have a fitted effect of over 50% in size; as to growth rescue (activation): % of control where 0% means no effect
Conditions: TDP-43 expressing yeast growth rescue, BacTiter-Glo, 24 h; growth rescue (activation): at 46.1 µM (top of the series) unless noted
Description: The goal of this project is to identify new chemical probes capable of reversing the toxicity associated with TDP-43 which is associated with frontotemporal lobar degeneration and amyotrophic lateral sclerosis. These compounds will provide a complementary approach to deciphering the tangled mechanisms of toxicity and protection that we have uncovered through genome-wide genetic screens and are beginning to uncover in a large-scale proteomics analysis with mass spectroscopy.
To this end, a miniaturized assay was developed to be screened against the Molecular Libraries Small Molecule Repository (MLSMR) to discover TDP-43 inhibitors. Please note that in the set-up this yeast-based assay compounds that inhibit as TDP-43, have a read-out as activators.
NIH Chemical Genomics Center [NCGC]
NIH Molecular Libraries Probe Centers Network [MLPCN]
Assay Submitter (PI): Susan Lindquist, Whitehead Institute/MIT
Dispense 2.5 microL yeast galactose medium per 1536-well plate, pin compound, dispense 2.5 microL TDP-43 expressing yeast in galactose medium at OD600=0.02 (pregrown in raffinose medium to mid-log phase) per well, incubate for 24 hr at 30 deg C, and cell growth will be measured using 5 microL of Bactiter/Glo reagent to entire plate and read using Luminescence Protocol in ViewLux.
Potency is read from the fitted curve at half-maximal effect; tags tell the direction and shape of the fitted curve.

Structure (SMILES) | Potency | growth rescue (activation)
COc1cccc(C2=NOC(C(=O)NCc3cccs3)C2)c1 (stereo not given) | inconclusive [activator, partial curve] | –
O=C(CC(c1ccc(F)cc1)c1ccco1)Nc1nccs1 (stereo not given) | inconclusive [activator, partial curve] | –
O=C(NCc1cccc(Cl)c1)c1ccc(-c2cccnc2)c2ccoc12 | active: 35.5 µM | –
O=C(Nc1ccc(F)c(Cl)c1)N1CCC(CN2CCc3ccccc3C2)CC1 | – | inactive: -1.43%
Cc1cccc(-c2nc3ccccc3n3c(-c4ccccc4)c4c(=O)n(C)c(=O)n(C)c4c23)c1 | inconclusive [activator, full curve, poor fit] | –
Cc1ccn2cc(CCNC(=O)COc3ccccc3)nc2c1 | inconclusive [activator, single point] | –
NS(=O)(=O)c1cccnc1Nc1ccc(Cl)c(Cl)c1 | inconclusive [activator, partial curve] | –
Cc1ccc(-c2nnc(N3CCN(C(=O)c4cccs4)CC3)c3ccccc23)cc1 | – | inactive: -8.73%
COc1ccc(-c2cc(=O)c3cc(O)ccc3o2)cc1 | inconclusive [activator, full curve, poor fit] | –
CCOC(=O)c1c(C)nsc1NC(=O)c1ccco1 | inconclusive [activator, single point] | –
O=C(Oc1ccc(=O)n(-c2ccccc2)n1)c1ccc(Cl)cc1 | inconclusive [activator, single point] | –
Cc1nc(Cl)sc1C(=O)Nc1ccc(Cl)cc1 | inconclusive [activator, single point] | –
O=C(c1ccccc1)c1ccc(CN2C(=O)c3ccccc3C2=O)o1 | inconclusive [activator, single point] | –
Cc1ccc(-n2ncc3c(NCC(C)C)ncnc32)c(C)c1 | inconclusive [activator, partial curve] | –
O=[N+]([O-])c1cc(CN2CCN(c3ccccc3)CC2)c(O)c2ncccc12 | inconclusive [activator, single point] | –
CCc1ccc(NC(=O)Cn2cnc3sc(C)c(S(=O)(=O)N4CCN(c5ccccc5OC)CC4)c3c2=O)cc1 | – | inactive: 5.4%
O=C(Nc1nc(-c2ccccc2)cs1)Nc1ccc(F)cc1F | inconclusive [activator, partial curve] | –
O=C1CCCN1CCCNCC(O)c1ccccc1 (stereo not given) | – | inactive: -6.11%
CCC(C)NC(=O)CCc1c(C)nc2cc(-c3ccc(OC)cc3OC)nn2c1C (stereo not given) | – | inactive: 8.35%
O=S(=O)(c1ccc(F)cc1)N1CCN(c2nc(-c3cccnc3)nc3ccccc23)CC1 | inconclusive [activator, single point] | –
O=C(CSc1ccc(-c2ccco2)nn1)Nc1ccccc1F | active: 28.2 µM | –
CC1=C/C(=C/N(C)c2ccccc2)C(=O)S1 | inconclusive [activator, single point] | –
Cc1c(OCC(=O)C(C)(C)C)ccc2c(-c3ccccc3)cc(=O)oc12 | active: 25.1 µM | –

Structure (SMILES) | Potency | growth rescue (activation)
COc1ccc2c(Cl)c(C(=O)N/N=C/c3ccncc3)sc2c1 | – | inactive: -4.43%
Cc1[nH]c2ccccc2c1SCCNC(=O)c1ccccc1F | active: 14.1 µM | –
C[C@@]12C(=O)Nc3ccccc3C(=O)N1[C@H]1c3cc(Cl)ccc3OC[C@@H]1[C@@H]2c1ccccc1 | inconclusive [activator, partial curve] | –
COc1cc(-c2noc(C)c2-c2ccc3[nH]ccc3c2)cc(OC)c1OC | inconclusive [activator, single point] | –
Cc1ccccc1NC(=S)NC(=O)/C=C/c1ccco1 | active: 10 µM | –
COc1ccc(/C=C/C(=O)NCC2COc3ccccc3O2)c(OC)c1 (stereo not given) | inconclusive [activator, single point] | –
COc1ccc2[nH]cc(CCCN3C(=O)c4ccccc4C3=O)c2c1 | inconclusive [activator, partial curve] | –
O=C(c1cccs1)N1CCC(Cc2ccccc2)CC1 | inconclusive [activator, partial curve] | –
O=C(O)Cc1ccc(NC(=S)Nc2ccc(Br)cc2Cl)cc1 | active: 35.5 µM | –
COCCNc1nc(Oc2cccc(F)c2)c2sccc2n1 | inconclusive [activator, partial curve] | –
COc1cc(OC)cc(-c2nc3cc(C)ccc3o2)c1 | inconclusive [activator, partial curve] | –
COc1ccccc1-c1nc(-c2ccc(C)nc2OC)no1 | inconclusive [activator, partial curve] | –
O=C(Nc1ccc(F)cc1)c1ccc(CSc2ccccc2)o1 | active: 15.8 µM | –
Cc1ccc(N2CCN(C(=O)C(=O)c3ccc(F)c(F)c3)CC2)cc1 | inconclusive [activator, partial curve] | –
O=C(CCCC(=O)OCC(Cl)=C(Cl)Cl)Nc1cccc(F)c1 | active: 14.1 µM | –
O=C(NCCCn1ccnc1)c1c(F)cccc1F | inconclusive [activator, full curve, poor fit] | –
O=C(NCc1ccccc1C(F)(F)F)C1CC(c2ccccc2[N+](=O)[O-])=NO1 (stereo not given) | active: 12.6 µM | –
COc1ccc(NC(=O)NC(C)c2c(-n3cccc3)sc3c2CCN(C)C3)c(OC)c1 (stereo not given) | – | inactive: 11.2%
O=C(CSc1nnc2[nH]c(=O)cc(-c3ccccc3)n12)Nc1cc(C(F)(F)F)ccc1Cl | inconclusive [activator, single point] | –
Cn1c(=O)n(CCc2ccccc2)c2ccccc21 | inconclusive [activator, partial curve] | –
O=C1N[C@H](Cc2ccccc2)COC(=O)[C@H](Cc2ccc(F)cc2)C/C=C\C[C@@H]1CC(=O)N(CCO)Cc1ccccc1 | inconclusive [activator, partial curve] | –
CCn1c(=O)cc(SCC(=O)N2CCN(c3ccccc3F)CC2)c2ccccc21 | inconclusive [activator, partial curve] | –
